T1: human LAG-3 (LAG-3 effector Jurkat T cells) (human, UniProt P18627 23-525)
T1 sequence (looked up): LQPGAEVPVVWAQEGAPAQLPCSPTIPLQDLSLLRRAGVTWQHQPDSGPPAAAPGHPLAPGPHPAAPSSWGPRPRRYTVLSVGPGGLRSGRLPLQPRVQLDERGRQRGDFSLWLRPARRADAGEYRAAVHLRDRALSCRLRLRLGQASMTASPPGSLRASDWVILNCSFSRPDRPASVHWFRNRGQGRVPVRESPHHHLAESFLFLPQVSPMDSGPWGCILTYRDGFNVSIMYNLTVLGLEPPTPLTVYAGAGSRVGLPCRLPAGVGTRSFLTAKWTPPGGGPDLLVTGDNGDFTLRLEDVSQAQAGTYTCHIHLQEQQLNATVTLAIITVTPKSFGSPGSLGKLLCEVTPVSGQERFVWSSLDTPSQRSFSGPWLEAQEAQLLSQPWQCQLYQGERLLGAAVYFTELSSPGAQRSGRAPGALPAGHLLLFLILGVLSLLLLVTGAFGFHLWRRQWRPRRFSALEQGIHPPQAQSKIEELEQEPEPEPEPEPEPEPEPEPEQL

B1: mPDL1LCv1-E-sLAG3-HCv1 (bispecific antibody, human IgG1, kappa)
light: DIQMTQSPSSLSASVGDRVTITCRASQDVSTAVDWYQQKPGKAPKLLIYSASYRYTGVPDRFSGSGSGTDFTFTISSLQPEDIATYYCQQHYSIPFTFGQGTKLEIKRTVAAPSVFIFPPSDEQLKSGTASVVCLLNNFYPREAKVQWKVDNALQSGNSQESVTEQDSKDSTYSLSSTLTLSKADYEKHKVYACEVTHQGLSSPVTKSFNRGECEPKSSDKTHTSPPSPEVQLVESGGGLVQPGGSLRLSCAASGYTVSSYCMGWFRQAPGKGREGVSAIDSDGSVSYADSVKGRFTISKDNSKNTLYLQMNSLRAEDTAVYFCAADLCWVDQDQGEYNTWGQGTLVTVSS
heavy: EVQLVQSGAEVKKPGASVKVSCKASGYIFTGYGITWVRQAPGQGLEWMGEIFPRRVQTYYSEKFKGRVTMTTDTSTSTAYMELRSLRSDDTAVYYCARDYDPYFALDYWGQGTTVTVSSASTKGPSVFPLAPSSKSTSGGTAALGCLVKDYFPEPVTVSWNSGALTSGVHTFPAVLQSSGLYSLSSVVTVPSSSLGTQTYICNVNHKPSNTKVDKKV[letters of human IgG1 Fc with changes not shown]
B2: mPDL1LCv1-E-sLAG3-HCv5 (bispecific antibody, human IgG1, kappa)
light: B1 light
heavy: EVQLVQSGAEVKKPGASVKVSCKASGYIFTGYGITWVRQAPGQGLEWMGEIFPRRVQTYYSEKFKGRVTMTADTSTSTAYMELRSLRSDDTAVYYCARDYDPYFALDYWGQGTTVTVSSASTKGPSVFPLAPSSKSTSGGTAALGCLVKDYFPEPVTVSWNSGALTSGVHTFPAVLQSSGLYSLSSVVTVPSSSLGTQTYICNVNHKPSNTKVDKKV[letters of human IgG1 Fc with changes not shown]
B3: sLAG3-E-mPDL1HCv1 (bispecific antibody, human IgG1, kappa)
heavy: EVQLVESGGGLVQPGGSLRLSCAASGYTVSSYCMGWFRQAPGKGREGVSAIDSDGSVSYADSVKGRFTISKDNSKNTLYLQMNSLRAEDTAVYFCAADLCWVDQDQGEYNTWGQGTLVTVSSEPKSSDKTHTSPPSPEVQLVQSGAEVKKPGASVKVSCKASGYIFTGYGITWVRQAPGQGLEWMGEIFPRRVQTYYSEKFKGRVTMTTDTSTSTAYMELRSLRSDDTAVYYCARDYDPYFALDYWGQGTTVTVSSASTKGPSVFPLAPSSKSTSGGTAALGCLVKDYFPEPVTVSWNSGALTSGVHTFPAVLQSSGLYSLSSVVTVPSSSLGTQTYICNVNHKPSNTKVDKKV[letters of human IgG1 Fc with changes not shown]
light: DIQMTQSPSSLSASVGDRVTITCRASQDVSTAVDWYQQKPGKAPKLLIYSASYRYTGVPDRFSGSGSGTDFTFTISSLQPEDIATYYCQQHYSIPFTFGQGTKLEIKRTVAAPSVFIFPPSDEQLKSGTASVVCLLNNFYPREAKVQWKVDNALQSGNSQESVTEQDSKDSTYSLSSTLTLSKADYEKHKVYACEVTHQGLSSPVTKSFNRGEC
B4: mPDL1HCv1-E-sLAG3 (bispecific antibody, human IgG1, kappa)
heavy: EVQLVQSGAEVKKPGASVKVSCKASGYIFTGYGITWVRQAPGQGLEWMGEIFPRRVQTYYSEKFKGRVTMTTDTSTSTAYMELRSLRSDDTAVYYCARDYDPYFALDYWGQGTTVTVSSASTKGPSVFPLAPSSKSTSGGTAALGCLVKDYFPEPVTVSWNSGALTSGVHTFPAVLQSSGLYSLSSVVTVPSSSLGTQTYICNVNHKPSNTKVDKKV[letters of human IgG1 Fc with changes not shown]EPKSSDKTHTSPPSPEVQLVESGGGLVQPGGSLRLSCAASGYTVSSYCMGWFRQAPGKGREGVSAIDSDGSVSYADSVKGRFTISKDNSKNTLYLQMNSLRAEDTAVYFCAADLCWVDQDQGEYNTWGQGTLVTVSS
light: B3 light

The first experiment has as its target T1, human LAG-3 (LAG-3 effector Jurkat T …). In words: cell-based or functional assay.
Consider B1, for which the “Bottom (LAG-3 blockade bioassay)” value worked out at 339000, the “Log EC50 (LAG-3 blockade bioassay)” value was found to be 1.75 and the “Top (LAG-3 blockade bioassay)” value was 908000.
The like results for B2 were, in that order, 328000, 1.15 and 754000.
The like results for B3 were, in that order, 359000, 0.989 and 752000.
The like results for B4 were, in that order, 381000, 1.14 and 753000.

For the next experiment, the target named is human PD-L1 (PD-L1 aAPC/CHO-K1 cells) (human, UniProt Q9NZQ7). In words: cell-based or functional assay.
UniProt Q9NZQ7, sequence (Q9NZQ7 19-290): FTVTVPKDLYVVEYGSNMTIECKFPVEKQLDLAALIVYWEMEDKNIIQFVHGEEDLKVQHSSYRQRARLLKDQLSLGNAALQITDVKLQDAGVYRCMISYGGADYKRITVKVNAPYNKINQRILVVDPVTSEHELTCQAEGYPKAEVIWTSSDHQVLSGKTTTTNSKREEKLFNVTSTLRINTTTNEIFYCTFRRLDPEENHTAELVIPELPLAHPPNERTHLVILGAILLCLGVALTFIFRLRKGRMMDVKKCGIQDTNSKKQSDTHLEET
As to B1, the “Bottom (PD-1/PD-L1 blockade bioassay)” value was determined as 30200, the “Log EC50 (PD-1/PD-L1 blockade bioassay)” value stood at 0.141 and the “Top (PD-1/PD-L1 blockade bioassay)” value turned out to be 116000.
The like results for B2 were, in that order, 26300, -0.245 and 116000.
In the same order, the values of B3 are 28200, -0.0241 and 112000.
In the same order, the values of B4 are 28400, -0.483 and 109000.

The record behind these values is patent publication US20220220204A1 (NANJING GENSCRIPT BIOTECH, published 2022).
